Measured values as given in the supplement of paper PMC4967469.
By IC50 is meant the dose at which the fit gives 50% viability; where the fit passes the top or lowest dose, that dose stands as a limit. AUC, from the same fit, is the share of area under the viability curve across the 256-fold dose range; values near 1 show little effect. For some assays here: Where the top dose is marked as inferred, it comes from the curve model; the source does not state it. For some assays here: An entry number marks a drug with two screens in the source, which often give different values.

Columns and labels:
Experiment in all cases: Viability of human cancer cell lines after 72 h of drug (GDSC screen)
[1] = compound: COc1cc(N2CCC(O)CC2)ccc1Nc1cc(Nc2ccccc2S(=O)(=O)C(C)C)c2cc[nH]c2n1 [MPS-1-IN-1]; settings: top dose 20 µM; top dose inferred
Description: (§1)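 Human cancer cell lines in 384-well plates, medium with 10% serum, drug for 72 h over a 256-fold dose range (nine 2-fold or five 4-fold steps up to the top dose). Adherent lines were fixed and stained with the nucleic acid dye Syto60, suspension lines read with resazurin; signal relative to control wells, capped at 0 and 100%. One two-parameter sigmoid per drug and line, fitted in a mixed model over all curves with the slope shared within a line.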

[2] = compound: COc1cc2ncnc(-n3nc(-c4ccccn4)nc3N)c2cc1OC [CP466722]; settings: top dose 16 µM; top dose inferred
Description: as §1

[3] = compound: CCn1c(-c2nonc2N)nc2cnc(Oc3cccc(NC(=O)c4ccc(OCCN5CCOCC5)cc4)c3)cc21 [GSK269962A]; settings: top dose 5 µM; screen: GDSC drug entry 1192; top dose inferred
Description: as §1

[4] = compound: COc1nc(C)cnc1NS(=O)(=O)c1cccnc1-c1ccc(-c2nnco2)cc1 [Zibotentan]; settings: top dose 20 µM; top dose inferred
Description: as §1

[5] = compound: C/C=C(/C)C(=O)O[C@H]1C(C)=C2[C@H]([C@@H]1OC(=O)CCCCCCC)[C@@](C)(OC(C)=O)C[C@H](OC(=O)CCC)[C@@]1(O)[C@H]2OC(=O)[C@@]1(C)O [Thapsigargin]; settings: top dose 0.512 µM; top dose inferred
Description: as §1

[6] = compound: Cc1ccc(F)c(NC(=O)Nc2ccc(-c3cccc4[nH]nc(N)c34)cc2)c1 [ABT-869]; settings: top dose 1.024 µM; top dose inferred
Description: as §1

[7] = compound: Nc1ccn([C@@H]2O[C@H](CO)[C@@H](O)[C@@H]2O)c(=O)n1 [Cytarabine]; settings: top dose 2 µM
Description: as §1

[8] = compound: COc1cc(O)c2c(c1)/C=C/C[C@H](O)[C@H](O)C(=O)/C=C\C[C@H](C)OC2=O [(5Z)-7-Oxozeaenol]; settings: top dose 10 µM; top dose inferred
Description: as §1

[9] = compound: C[C@]1(c2nc3c(C(N)=O)cccc3[nH]2)CCCN1 [ABT-888]; settings: top dose 5 µM; top dose inferred
Description: as §1

[10] = compound: O=c1cc(-c2cccc3c2Sc2ccccc2S3)oc(N2CCOCC2)c1 [KU-55933]; settings: top dose 10 µM
Description: as §1

[11] = compound: Cc1cnc(-c2cnc(NCCNc3ccc(C#N)cn3)nc2-c2ccc(Cl)cc2Cl)[nH]1 [CHIR-99021]
Description: as §1

[12] = compound: C=CC(=O)Nc1cc(-n2c(=O)ccc3cnc4ccc(-c5cn[nH]c5)cc4c32)ccc1C [QL-X-138]; settings: top dose 10.24 µM; top dose inferred
Description: as §1

[13] = top dose 2.56 µM, screen: GDSC drug entry 154
[14] = top dose 10 µM, screen: GDSC drug entry 1241, top dose inferred

Cell Line | AUC [1] | IC50 [1] | AUC [2] | IC50 [2] | AUC [3] | IC50 [3] | AUC [4] | IC50 [4] | AUC [5] | IC50 [5] | AUC [6] | IC50 [6] | AUC [7] | IC50 [7] | AUC [8] | IC50 [8] | AUC [9] | IC50 [9] | AUC [10] | IC50 [10] | AUC [11, 13] | IC50 [11, 13] | AUC [11, 14] | IC50 [11, 14] | AUC [12] | IC50 [12]
KMRC-20 (kidney, adherent) | 0.989 | > 20 µM | 0.982 | > 16 µM | 0.907 | > 5 µM | 0.989 | > 20 µM | 0.974 | > 0.512 µM | 0.984 | > 1.02 µM | 0.841 | 1.42 µM | 0.888 | > 10 µM | 0.989 | > 5 µM | 0.95 | > 10 µM | 0.989 | > 2.56 µM | 0.988 | > 10 µM | 0.969 | > 10.2 µM
KP-3 (pancreas, adherent) | 0.897 | > 20 µM | 0.768 | 7.12 µM | 0.883 | > 5 µM | 0.982 | > 20 µM | 0.29 | 0.00724 µM | 0.98 | > 1.02 µM | 0.783 | 1.02 µM | 0.721 | 3.02 µM | 0.984 | > 5 µM | 0.984 | > 10 µM | 0.983 | > 2.56 µM | 0.951 | > 10 µM | 0.867 | > 10.2 µM
KYSE-50 (oesophagus, adherent) | 0.746 | 5.86 µM | 0.834 | 9.16 µM | 0.989 | > 5 µM | 0.989 | > 20 µM | 0.215 | 0.00515 µM | 0.965 | > 1.02 µM | 0.874 | 1.67 µM | 0.863 | 7.46 µM | 0.99 | > 5 µM | 0.973 | > 10 µM | 0.975 | > 2.56 µM | 0.963 | > 10 µM | 0.75 | 3.09 µM
KYSE-150 (oesophagus, adherent) | 0.925 | > 20 µM | 0.906 | > 16 µM | 0.984 | > 5 µM | 0.99 | > 20 µM | 0.196 | 0.00421 µM | 0.988 | > 1.02 µM | 0.987 | > 2 µM | 0.817 | 5.29 µM | 0.943 | > 5 µM | 0.984 | > 10 µM | 0.981 | > 2.56 µM | 0.988 | > 10 µM | 0.828 | 5.98 µM
KYSE-220 (oesophagus, adherent) | 0.897 | > 20 µM | 0.847 | 12.8 µM | 0.959 | > 5 µM | 0.985 | > 20 µM | 0.266 | 0.00661 µM | 0.979 | > 1.02 µM | 0.824 | 1.28 µM | 0.806 | 5.42 µM | 0.983 | > 5 µM | 0.977 | > 10 µM | 0.985 | > 2.56 µM | 0.949 | > 10 µM | 0.804 | 5.46 µM
KYSE-450 (oesophagus, adherent) | 0.723 | 5.13 µM | 0.791 | 6.77 µM | 0.941 | > 5 µM | 0.987 | > 20 µM | 0.18 | 0.00375 µM | 0.987 | > 1.02 µM | 0.838 | 1.24 µM | 0.822 | 5.43 µM | 0.977 | > 5 µM | 0.962 | > 10 µM | 0.953 | > 2.56 µM | 0.874 | 8.8 µM | 0.577 | 1.02 µM
KYSE-510 (oesophagus, adherent) | 0.946 | > 20 µM | 0.946 | > 16 µM | 0.977 | > 5 µM | 0.992 | > 20 µM | 0.112 | 0.00252 µM | 0.991 | > 1.02 µM | 0.657 | 0.313 µM | 0.786 | 3.57 µM | 0.976 | > 5 µM | 0.976 | > 10 µM | 0.992 | > 2.56 µM | 0.99 | > 10 µM | 0.906 | 9.76 µM
KYSE-520 (oesophagus, adherent) | 0.822 | 17.3 µM | 0.827 | 14.6 µM | 0.979 | > 5 µM | 0.979 | > 20 µM | 0.306 | 0.00749 µM | 0.98 | > 1.02 µM | 0.842 | > 2 µM | 0.793 | 6.43 µM | 0.951 | > 5 µM | 0.965 | > 10 µM | 0.969 | > 2.56 µM | 0.979 | > 10 µM | 0.732 | 3.75 µM
LC-1-sq (lung squamous cell carcinoma, adherent) | 0.978 | > 20 µM | 0.84 | 13.8 µM | 0.976 | > 5 µM | 0.981 | > 20 µM | 0.303 | 0.00806 µM | 0.982 | > 1.02 µM | 0.897 | > 2 µM | 0.976 | > 10 µM | 0.948 | > 5 µM | 0.938 | > 10 µM | 0.928 | > 2.56 µM | 0.918 | > 10 µM | 0.865 | > 10.2 µM
LCLC-103H (large cell lung carcinoma, adherent) | 0.956 | > 20 µM | 0.817 | 7.9 µM | 0.984 | > 5 µM | 0.99 | > 20 µM | 0.135 | 0.00268 µM | 0.989 | > 1.02 µM | 0.951 | > 2 µM | 0.898 | > 10 µM | 0.957 | > 5 µM | 0.933 | > 10 µM | 0.968 | > 2.56 µM | 0.987 | > 10 µM | 0.616 | 1.29 µM
